# According to publication PMC4336329 (PLoS ONE, 2015):
# In all, about 310,000 compounds went through this assay and about 2,200 (0.71%) showed an effect of 50% or more. Effects have a minus sign here. The list shows a part of the results.
# Target: human ether-à-go-go-related gene (hERG) potassium channel (human, UniProt Q12809)
# Assay: primary screen, population patch clamp on CHO cells stably expressing hERG
# Chain of human ether-à-go-go-related gene (hERG) potassium channel (Q12809 whole entry, looked up): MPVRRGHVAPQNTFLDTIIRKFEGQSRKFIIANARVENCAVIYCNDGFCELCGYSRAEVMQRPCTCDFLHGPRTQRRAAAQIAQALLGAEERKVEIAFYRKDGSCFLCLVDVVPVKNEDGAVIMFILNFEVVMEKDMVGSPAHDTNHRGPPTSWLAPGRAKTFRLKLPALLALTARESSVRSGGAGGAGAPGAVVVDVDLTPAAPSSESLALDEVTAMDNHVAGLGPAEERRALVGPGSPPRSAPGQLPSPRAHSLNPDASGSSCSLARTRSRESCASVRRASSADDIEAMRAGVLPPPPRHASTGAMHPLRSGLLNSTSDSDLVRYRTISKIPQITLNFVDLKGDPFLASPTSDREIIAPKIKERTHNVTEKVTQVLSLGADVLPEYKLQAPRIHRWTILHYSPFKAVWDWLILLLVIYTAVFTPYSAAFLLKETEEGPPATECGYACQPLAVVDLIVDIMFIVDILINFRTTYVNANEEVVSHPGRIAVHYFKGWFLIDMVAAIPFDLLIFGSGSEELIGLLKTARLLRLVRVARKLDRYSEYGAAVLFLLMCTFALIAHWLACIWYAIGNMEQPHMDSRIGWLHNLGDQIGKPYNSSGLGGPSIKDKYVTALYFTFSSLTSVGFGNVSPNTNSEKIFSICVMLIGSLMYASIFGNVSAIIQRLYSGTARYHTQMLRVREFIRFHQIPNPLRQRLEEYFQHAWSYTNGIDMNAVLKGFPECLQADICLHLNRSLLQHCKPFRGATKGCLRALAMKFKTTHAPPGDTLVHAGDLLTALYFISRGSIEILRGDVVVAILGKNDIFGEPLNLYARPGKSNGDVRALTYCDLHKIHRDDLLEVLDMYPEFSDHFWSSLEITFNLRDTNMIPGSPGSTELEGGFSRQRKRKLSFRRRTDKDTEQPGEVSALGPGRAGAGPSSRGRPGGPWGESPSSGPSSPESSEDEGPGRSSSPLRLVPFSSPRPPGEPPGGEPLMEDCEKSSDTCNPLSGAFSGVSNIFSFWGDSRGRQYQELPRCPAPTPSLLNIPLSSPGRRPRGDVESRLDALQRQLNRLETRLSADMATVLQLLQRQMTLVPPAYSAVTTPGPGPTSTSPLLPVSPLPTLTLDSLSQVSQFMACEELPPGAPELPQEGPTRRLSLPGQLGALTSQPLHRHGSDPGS
row,SMILES,"hERG current change (%, negative = inhibition) at 1uM [%]"
1,CCCCC(=O)NC(NC(=O)CCCC)c1ccc(OCCC)c(OC)c1,-6.04
2,CCn1ncc(Cl)c1C(=O)NC(=S)Nc1c(C)cc(C)cc1[N+](=O)[O-],1.62
3,COC(=O)c1ccccc1NC(=O)CSc1nccn1C,9.7
4,O=C(O)c1ccc(C(=O)c2ccc3c(c2)C(=O)N(Cc2ccco2)C3=O)cc1,3.64
5,C=CCn1c(SCC(=O)c2ccc(Br)cc2)nnc1C(CC(C)C)NC(=O)c1cccs1 (centres unmarked),3.73
6,Cc1ccc(SCC(=O)OCC(=O)NCc2cccs2)cc1,9.05
7,Cc1cc(C)n2ncc(C(=O)Nc3cccc(O)c3)c2n1,5.08
8,O=C(c1ccc2c(c1)OCO2)C1CCCN(Cc2ccc3cccc(F)c3n2)C1 (centres unmarked),-81.5
9,Cc1ccc(C(=O)N/C(=C\c2ccc(Cl)cc2)C(=O)NCCN2CCOCC2)cc1,-70.6
10,COC(=O)c1cc2oc(C)cc2n1CC(=O)Nc1ccc(C)c(C)c1,13.6
11,O=C(Nc1ccccc1Oc1cccnc1)C1CCCN(C/C=C/c2ccc(F)cc2)C1 (centres unmarked),-11.8
12,COc1ccc(Nc2nc(-c3cccs3)cs2)c(OC)c1,2.87
13,O=[N+]([O-])c1ccc(O)c(C=Nc2ccc3oc(Cc4ccc(Cl)cc4)nc3c2)c1,11.3
14,CC(C)NC(=O)CN1C(=O)CSc2ccc(S(=O)(=O)N3CCCC3)cc21,13.3
15,Cc1ccc(/C(O)=C2\C(=O)C(=O)N(CC(C)O)C2c2ccccn2)cc1 (centres unmarked),2.24
16,Cc1ccc(S(=O)(=O)NC(C)(C)CSc2nncn2N)cc1,7.72
17,O=C1Nc2ccc(Br)cc2C(c2ccc(Cl)cc2)=NC1O (centres unmarked),-22.5
18,CC(=O)Nc1nonc1-c1nc2ccccc2n1CCC(C)C,7.61
19,CN(C)C(CNC(=O)CCS(=O)(=O)c1ccccc1)c1ccccc1 (centres unmarked),6.21

row,SMILES,"hERG current change (%, negative = inhibition) at 1uM [%]"
1,O=C(CC(NC(=O)c1ccccc1)c1ccccc1)Nc1ccc(F)c(F)c1 (centres unmarked),22.8
2,COc1ccc(C(=O)NC2CCN(S(=O)(=O)c3ccccc3F)CC2)cc1,13.1
3,O=C(OC(C(=O)NCc1ccccc1)c1ccccc1)c1ccco1 (centres unmarked),16.8
4,CC(C)Cn1c(CN2C(=O)c3ccccc3C2=O)nc2ccccc2c1=O,10.5
5,COc1ccc(NC(=O)CN2CCc3ccccc3C2)c(OC)c1,15.6
6,COc1ccccc1Cn1cccc1C=O,5.36
7,CC(Oc1cccc(Cl)c1)C(=O)N1CCCN(C)CC1 (centres unmarked),15.5
8,Cc1cc(C)n(CC(=O)O)c(=O)c1[N+](=O)[O-],5.09
9,COCCCNc1nc2c(-c3ccc(C)cc3)nnn2c2ccccc12,12.9
10,COc1ccc(-c2nnn(CC(=O)N(Cc3ccccc3Cl)C(C(=O)NCC3CCCO3)c3ccco3)n2)cc1 (centres unmarked),5.29
11,O=C(CN1CCOCC1)Nc1cccc([N+](=O)[O-])c1,12.4
12,Cc1ccc(CNS(=O)(=O)NCc2ccccc2)cc1,11.2
13,O=C(CSc1ccccc1C(=O)NCc1ccccc1)NC12CC3CC(CC(C3)C1)C2,4.41
14,COc1ccc(-c2nnc3cccc(Cl)n23)c(OC)c1,9.08
15,COc1ccc(NS(=O)(=O)c2ccc(OC)c(N(C)S(=O)(=O)c3ccc(Cl)cc3)c2)cc1,1.57
16,CN1CCc2c(sc(NC(=O)c3ccc(S(=O)(=O)N4CCc5ccccc54)cc3)c2C(N)=O)C1.Cl,8.16
17,COc1ccc2c(c1OC)C(=O)N(c1ccccc1)C2=O,3.82
18,O=C(O)CCC(NC(=O)c1cncc(O)c1)C(=O)O (centres unmarked),5.86
19,CC(C)CN(C(=O)c1ccc(=O)n(C)n1)c1nc2ccccc2s1,7.42

row,SMILES,"hERG current change (%, negative = inhibition) at 1uM [%]"
1,COC(=O)CC(=O)CSc1nc2c(cc1C#N)CCCCC2,9.77
2,COCCn1c(SCC(=O)NCC2CCCO2)nc2c(c1=O)SCC2 (centres unmarked),13.8
3,CCOCCCNCc1ccc(OCc2ccccc2C)c(OC)c1.Cl,0.719
4,N#CCN1CCCC(C(N)=O)C1 (centres unmarked),7.14
5,CN1CCN(C(=O)C2CCN(c3ncnc4c3nc3n4CCCCC3)CC2)CC1,17.1
6,CCOC(=O)CSc1ccc(S(=O)(=O)N(C)C2CCCCC2)cc1[N+](=O)[O-],14.4
7,O=C(NCCS(=O)(=O)N1CCN(c2ccccc2F)CC1)c1ccc(Br)cc1,18.8
8,CN(C)C=O.O=C(CNC(=O)C12CC3CC(CC(C3)C1)C2)N1CCN(S(=O)(=O)c2cccs2)CC1,13.2
9,COc1ccc(N(CC(=O)N/N=C(\C)c2cccs2)S(=O)(=O)c2ccccc2)cc1Cl,-33.6
10,O=c1[nH]c(CN2CCNCC2)nc2ccccc12,1.3
11,CC(C(=O)N1CCN(C(=O)c2ccco2)CC1)N1C(=O)NC2(CCCCC2C)C1=O (centres unmarked),12.7
12,CCCCC(CC)C(=O)Nc1cc([N+](=O)[O-])ccc1F (centres unmarked),3.96
13,CN(CC(=O)Nc1ccccc1C(F)(F)F)C(=O)CSc1nc(N)cc(N)n1,9.61
14,CC(C)c1ccc(S(=O)(=O)/N=C2\C=C(NS(=O)(=O)c3ccccc3)C(=O)c3ccccc32)cc1,-3.11
15,COc1ccc(-c2[nH]ncc2CN2CCCC(C(=O)c3cccc(OC)c3)C2)cc1 (centres unmarked),-29.5
16,CCN1CCN(C(=O)CCNC(=O)Cn2cnc3ccccc3c2=O)CC1,15.8
17,Cc1cc(OCc2nc(-c3ccncc3)no2)cc(C)c1Cl,14.8
18,CCOC(=O)Cc1csc(NC(=O)CSc2nc(C)cc(=O)[nH]2)n1.Cl,1.47
